Reference: the supplement of paper PMC4604168 (melanoma cell lines)
The other results are listed elsewhere or left out. Most values come without repeats; read them as rough.

The compounds below were run on WM1745 (assay: cell count relative to DMSO control; melanoma cells; higher = more viable cells). Details: library dose: low library concentration; 72 h.
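Note: cell number obtained by counting DAPI-stained nuclei in high-throughput microscope images with image analysis software, screen run in 1,536-well plates.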

Compound | cell count [%]
Nc1ncn([C@H]2C[C@H](O)[C@@H](CO)O2)c(=O)n1 [decitabine] + COc1ccc(Cl)c(Nc2nc3ccccc3nc2NS(=O)(=O)c2cccc(NC(=O)C(C)(C)N)c2)c1 [XL147] (first compound 0.1 µM, partner dose 0.8 µM) | 82.8
CO[C@H]1C[C@@H]2CC[C@@H](C)[C@@](O)(O2)C(=O)C(=O)N2CCCC[C@H]2C(=O)O[C@H]([C@H](C)C[C@@H]2CC[C@@H](OCCO)[C@H](OC)C2)CC(=O)[C@H](C)/C=C(\C)[C@@H](O)[C@@H](OC)C(=O)[C@H](C)C[C@H](C)/C=C/C=C/C=C/1C [everolimus] + N#Cc1c(O)c2c(-c3ccc(-c4ccccc4O)cc3)csc2[nH]c1=O [A769662] (first compound 0.02 µM, partner dose 2 µM) | 85.4
Nc1ccn([C@@H]2O[C@H](CO)[C@@H](O)C2(F)F)c(=O)n1 [gemcitabine] + OCc1c[nH]c2ccccc12 [Indole-3-carbinol] (first compound 0.0004 µM, partner dose 0.8 µM) | 70.1
CO[C@H]1C[C@@H]2CC[C@@H](C)[C@@](O)(O2)C(=O)C(=O)N2CCCC[C@H]2C(=O)O[C@H]([C@H](C)C[C@@H]2CC[C@@H](OCCO)[C@H](OC)C2)CC(=O)[C@H](C)/C=C(\C)[C@@H](O)[C@@H](OC)C(=O)[C@H](C)C[C@H](C)/C=C/C=C/C=C/1C [everolimus] + Oc1cc(-c2nc(-c3ccccc3)[nH]c2-c2ccncc2)ccc1Cl [L779450] (first compound 0.02 µM, partner dose 0.2 µM) | 74.2
